# Test results reported in a collection of fitness landscapes (doi:10.1016/j.celrep.2020.107928).
# In all, about 81,000 sequences were measured (“one-hybrid fitness for binding parS DNA”: median about -0.17, highest 2% from about 0.51 on). Some of the results follow.
# B1: Caulobacter ParB omega fusion; a variant is named by its letters at X, in order, B8GW30 (parent)
# chain: MESVVVGEPGMSEGRRGLGRGLSALLGEVDAAPAQAPGEQLGGSREAPIEILQRNPDQPRRTFREEDLEDLSNSIREKGVLQPILVRPSPDTAGEYQIVAGERAWRAAQRAGLKTVPIMVRELDDLAVLEIGIIENVQRADLNVLEEALSYKVLMEKFERTQENIAQTIGKSXSHVANXMRLLXLPDEVQSYLVSGELTAXHARAIAAAADPVALAKQIIEGGLSVRETEALARKAPNLSAGKSKGGRPPRVKDTDTQALESDLSSVLGLDVSIDHRGSTGTLTITYATLEQLDDLCNRLTRGI
# Variants of: B1
# Assay: one-hybrid fitness for binding parS DNA (scaled: cognate 1, non-cognate 0); higher = stronger binding
# Conditions: with parS DNA site
# Outline: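 Bacterial one-hybrid selection in E. coli USO rpoZ- hisB- pyrF- with a HIS3 reporter carrying the site 19 bp from the promoter, screening Caulobacter ParB libraries with four specificity codons randomised (NNS). Cells grew 48 hours at 37°C on M9-minus-histidine plus 0.1 mM IPTG and 5 mM 3-AT. Plasmids before and after selection were Illumina-sequenced, three replicate libraries pooled, and variants under 10 reads dropped. Fitness is the log change in variant-to-wild-type read ratio, rescaled to cognate 1, non-cognate 0.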
row,Variant,one-hybrid fitness for binding parS DNA
1,QRIM,≤ 0.2
2,ISRC,≤ 0.2
3,GMVD,≤ 0.2
4,PVHN,≤ 0.2
5,RWGS,0.68
6,KQPW,≤ 0.2
7,SSQG,≤ 0.2
8,YPNM,≤ 0.2
9,SFQL,≤ 0.2
10,VMNW,≤ 0.2
11,CREV,≤ 0.2
12,PFFG,≤ 0.2
13,FMPS,≤ 0.2
14,QYYR,≤ 0.2
15,HYGG,≤ 0.2
16,WLHL,≤ 0.2
17,ASLH,≤ 0.2
18,YCKG,≤ 0.2
19,WQLR,≤ 0.2
20,PHIR,≤ 0.2
21,ARDV,≤ 0.2
22,FGKG,≤ 0.2
23,KYRT,≤ 0.2
24,MQHS,≤ 0.2
25,AYIR,≤ 0.2

row,Variant,one-hybrid fitness for binding parS DNA
1,QVCY,≤ 0.2
2,RLLT,0.961
3,NELD,≤ 0.2
4,GVKS,≤ 0.2
5,KPQR,≤ 0.2
6,EQIW,≤ 0.2
7,DLGR,≤ 0.2
8,ISFC,≤ 0.2
9,FMTS,≤ 0.2
10,DPKL,≤ 0.2
11,LVLT,≤ 0.2
12,KLMW,≤ 0.2
13,VLMD,≤ 0.2
14,MHHT,≤ 0.2
15,LYTI,≤ 0.2
16,ICQT,≤ 0.2
17,VWKA,≤ 0.2
18,EQHC,≤ 0.2
19,ACGK,≤ 0.2
20,TNVM,≤ 0.2
21,THIS,≤ 0.2
22,DEKR,≤ 0.2
23,QWLS,≤ 0.2
24,NETR,≤ 0.2
25,LELC,≤ 0.2

row,Variant,one-hybrid fitness for binding parS DNA
1,QNPY,≤ 0.2
2,RISV,≤ 0.2
3,RAGG,0.99
4,RADM,0.284
5,ILDV,≤ 0.2
6,YAAR,≤ 0.2
7,PATL,≤ 0.2
8,YWII,≤ 0.2
9,GKDL,≤ 0.2
10,TKTW,≤ 0.2
11,PKDK,≤ 0.2
12,IIHE,≤ 0.2
13,TILG,≤ 0.2
14,KQLT,≤ 0.2
15,DIPL,≤ 0.2
16,TCPM,≤ 0.2
17,LRAA,≤ 0.2
18,IDWT,≤ 0.2
19,RPCW,≤ 0.2
20,RCAH,≤ 0.2
21,RNMY,0.325
22,AQLM,≤ 0.2
23,WFLS,≤ 0.2
24,HHLG,≤ 0.2
25,PIFS,≤ 0.2

row,Variant,one-hybrid fitness for binding parS DNA
1,STPG,≤ 0.2
2,LHHA,≤ 0.2
3,AANY,≤ 0.2
4,EDGR,≤ 0.2
5,PPLT,≤ 0.2
6,SEDG,≤ 0.2
7,LHGS,≤ 0.2
8,SENN,≤ 0.2
9,VKPI,≤ 0.2
10,QAPW,≤ 0.2
11,DYVY,≤ 0.2
12,SLRL,≤ 0.2
13,LCWF,≤ 0.2
14,PPQS,≤ 0.2
15,PFFV,≤ 0.2
16,AART,≤ 0.2
17,FLTG,≤ 0.2
18,IRNN,≤ 0.2
19,APSD,≤ 0.2
20,QTVI,≤ 0.2
21,PTFM,≤ 0.2
22,VDSL,≤ 0.2
23,MTQR,≤ 0.2
24,CGNW,≤ 0.2
25,FVTS,≤ 0.2

row,Variant,one-hybrid fitness for binding parS DNA
1,HGPS,≤ 0.2
2,ELLC,≤ 0.2
3,VVPE,≤ 0.2
4,PVYD,≤ 0.2
5,LLRA,≤ 0.2
6,ELRQ,≤ 0.2
7,GECF,≤ 0.2
8,CERA,≤ 0.2
9,QMHN,≤ 0.2
10,QSPG,≤ 0.2
11,SHSS,≤ 0.2
12,NCGC,≤ 0.2
13,RRRM,0.762
14,QSLT,≤ 0.2
15,NWCR,≤ 0.2
16,HTQC,≤ 0.2
17,GYCG,≤ 0.2
18,SKKI,≤ 0.2
19,QKNK,≤ 0.2
20,MHSL,≤ 0.2
21,LSFM,≤ 0.2
22,DTAQ,≤ 0.2
23,PNNS,≤ 0.2
24,TRIS,≤ 0.2
25,RTRE,≤ 0.2

row,Variant,one-hybrid fitness for binding parS DNA
1,LWTG,≤ 0.2
2,KLPS,≤ 0.2
3,THFY,≤ 0.2
4,STSV,≤ 0.2
5,PRLY,≤ 0.2
6,VDCC,≤ 0.2
7,ALQV,≤ 0.2
8,VANC,≤ 0.2
9,WKHT,≤ 0.2
10,DQTT,≤ 0.2
11,NKNG,≤ 0.2
12,GINY,≤ 0.2
13,NCPE,≤ 0.2
14,FMSR,≤ 0.2
15,PIVK,≤ 0.2
16,AKSV,≤ 0.2
17,MSHS,≤ 0.2
18,APGM,≤ 0.2
19,CHKD,≤ 0.2
20,PEWT,≤ 0.2
21,RHDM,0.254
22,RQWK,≤ 0.2
23,WAYI,≤ 0.2
24,HYDG,≤ 0.2
25,VRHG,≤ 0.2

row,Variant,one-hybrid fitness for binding parS DNA
1,SPPD,≤ 0.2
2,KRHK,≤ 0.2
3,GRWE,≤ 0.2
4,WISC,≤ 0.2
5,RQRM,0.349
6,RITE,≤ 0.2
7,WEPW,≤ 0.2
8,NSML,≤ 0.2
9,RPCL,≤ 0.2
10,FRDK,≤ 0.2
11,RFIP,≤ 0.2
12,MEGG,≤ 0.2
13,RQTY,0.45
14,TYPI,≤ 0.2
15,LFMW,≤ 0.2
16,LPYL,≤ 0.2
17,QCQY,≤ 0.2
18,GAHA,≤ 0.2
19,LRLP,≤ 0.2
20,KDGW,≤ 0.2
21,SYSI,≤ 0.2
22,SKCS,≤ 0.2
23,VNPF,≤ 0.2
24,ISTK,≤ 0.2
25,LCPT,≤ 0.2

row,Variant,one-hybrid fitness for binding parS DNA
1,VTPP,≤ 0.2
2,HEKV,≤ 0.2
3,SDIT,≤ 0.2
4,MCFR,≤ 0.2
5,INYT,≤ 0.2
6,QHTQ,≤ 0.2
7,DPYH,≤ 0.2
8,QSPI,≤ 0.2
9,DIVS,≤ 0.2
10,RREH,≤ 0.2
11,NDYP,≤ 0.2
12,WWPD,≤ 0.2
13,MVQT,≤ 0.2
14,NYTI,≤ 0.2
15,YNRT,≤ 0.2
16,RERA,≤ 0.2
17,LLCE,≤ 0.2
18,PVKH,≤ 0.2
19,EFLA,≤ 0.2
20,PLKV,≤ 0.2
